Assay results taken from the supplement of paper PMC12067230.
Single values of this set are uncertain.

Assay: amyloid nucleation score relative to library mode (yeast Sup35 reporter selection) (log enrichment difference); higher = more amyloid nucleation; sequences are the first 22 residues of the Bri2 peptide extended by up to 12 random residues
Conditions: random library (experiment): 1;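 active = nucleation score significantly above 0 at FDR 0.05; inactive = not significantly above 0 or absent from output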
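Further: [psi-pin-] Saccharomyces cerevisiae expressing SupN fusions, induced by 100 µM Cu2SO4, selected 7 d at 30 °C without adenine and uracil, scored by deep sequencing of output versus input.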

Sequence | amyloid nucleation score
EASNCFAIRHFENKFAVETLICGCGYGHRVAVGI | inactive
EASNCFAIRHFENKFAVETLICGCKESVRPLYAQ | inactive
EASNCFAIRHFENKFAVETLICGCKVSNLHRDVK | 7.23
EASNCFAIRHFENKFAVETLICGCLCTASERRYV | 7.02
EASNCFAIRHFENKFAVETLICGCLRMSWRRGVQ | 4.04
EASNCFAIRHFENKFAVETLICGCLRVGTHVVKG | inactive
EASNCFAIRHFENKFAVETLICGCQVLWCPPVFA | inactive
EASNCFAIRHFENKFAVETLICGCRCG | 5.95
EASNCFAIRHFENKFAVETLICGCRHALNRRLGW | inactive
EASNCFAIRHFENKFAVETLICGCRQCETVSRMM | 3.93
EASNCFAIRHFENKFAVETLICGCRRSYVRAGWR | inactive
EASNCFAIRHFENKFAVETLICGCRSSRSLPIGA | inactive
EASNCFAIRHFENKFAVETLICGCRYGNGVRHAC | inactive
EASNCFAIRHFENKFAVETLICGCS | inactive
EASNCFAIRHFENKFAVETLICGCSKCEIDGCKT | 6.69
EASNCFAIRHFENKFAVETLICGCTVVSL | 5.81
EASNCFAIRHFENKFAVETLICGCVCARVNVPVT | 5.78
EASNCFAIRHFENKFAVETLICGCVDSFMIYAQA | inactive
EASNCFAIRHFENKFAVETLICGCVHSIECLVLA | inactive
EASNCFAIRHFENKFAVETLICGCVKFTDTSWWS | 3.89
EASNCFAIRHFENKFAVETLICGCVYGGGWGWCW | 6.95
EASNCFAIRHFENKFAVETLICGCWIGGRRRA | inactive
EASNCFAIRHFENKFAVETLICGCYVGRSVSSNC | inactive

Sequence | amyloid nucleation score
EASNCFAIRHFENKFAVETLICGD | inactive
EASNCFAIRHFENKFAVETLICGDAHVPCAVWNT | -0.163
EASNCFAIRHFENKFAVETLICGDALDSE | -0.0664
EASNCFAIRHFENKFAVETLICGDAVAGLASARK | inactive
EASNCFAIRHFENKFAVETLICGDAYTTVSMGER | 6.93
EASNCFAIRHFENKFAVETLICGDCRGTACAGCK | inactive
EASNCFAIRHFENKFAVETLICGDGARNWGPCLG | inactive
EASNCFAIRHFENKFAVETLICGDGETAVHQSTG | -0.0664
EASNCFAIRHFENKFAVETLICGDGFRTLLSGTV | inactive
EASNCFAIRHFENKFAVETLICGDGGYCEMSGGL | inactive
EASNCFAIRHFENKFAVETLICGDGHVNSGADST | inactive
EASNCFAIRHFENKFAVETLICGDHLCYVILSWQ | inactive
EASNCFAIRHFENKFAVETLICGDLFGRLAAEKL | inactive
EASNCFAIRHFENKFAVETLICGDLGSAKCGEGW | inactive
EASNCFAIRHFENKFAVETLICGDLRESANGLIA | inactive
EASNCFAIRHFENKFAVETLICGDLSENIAVSGG | inactive
EASNCFAIRHFENKFAVETLICGDLTCVCLRAKT | 8.27
EASNCFAIRHFENKFAVETLICGDNRE | inactive
EASNCFAIRHFENKFAVETLICGDPNATPFMWFR | inactive
EASNCFAIRHFENKFAVETLICGDPVKASVMYTP | -0.0479
EASNCFAIRHFENKFAVETLICGDRGSGQTVASD | inactive
EASNCFAIRHFENKFAVETLICGDSKDL | inactive
EASNCFAIRHFENKFAVETLICGDSSGEAGLTVG | -0.25

Same assay, conditions: random library (experiment): 2

Sequence | amyloid nucleation score
EASNCFAIRHFENKFAVETLICGCHTLCTRRGEE | 6.98
EASNCFAIRHFENKFAVETLICGCISEFERLYRE | inactive
EASNCFAIRHFENKFAVETLICGCKRSKPSHFLG | inactive
EASNCFAIRHFENKFAVETLICGCLVNWFYRPRR | 8.23
EASNCFAIRHFENKFAVETLICGCNRMTILSLAL | inactive
EASNCFAIRHFENKFAVETLICGCNV | inactive
EASNCFAIRHFENKFAVETLICGCQFSISCILLT | inactive
EASNCFAIRHFENKFAVETLICGCQVKLIFVSRY | 4.42
EASNCFAIRHFENKFAVETLICGCVMSMDDRNSA | 7.97
EASNCFAIRHFENKFAVETLICGCVVWVVSVSVS | 0.571
EASNCFAIRHFENKFAVETLICGCWFVSVFPCAI | inactive
EASNCFAIRHFENKFAVETLICGDCFILCSMTWK | 4.61
EASNCFAIRHFENKFAVETLICGDDCLRGADVSS | 0.408
EASNCFAIRHFENKFAVETLICGDDTTCRWEW | inactive
EASNCFAIRHFENKFAVETLICGDMGSTGINRSF | inactive
EASNCFAIRHFENKFAVETLICGDS | inactive
EASNCFAIRHFENKFAVETLICGDSKNLVQLVL | -0.113

Same assay, conditions: random library (experiment): 3

Sequence | amyloid nucleation score
EASNCFAIRHFENKFAVETLICGCKFTMISGRAG | 1.67
EASNCFAIRHFENKFAVETLICGCKIIY | 5.5
EASNCFAIRHFENKFAVETLICGCKNGWRNWPCW | 5.63
EASNCFAIRHFENKFAVETLICGCLRLMRWLVHS | inactive
EASNCFAIRHFENKFAVETLICGCMCPQ | 7.95
EASNCFAIRHFENKFAVETLICGCMPKLQDIIT | 4.02
EASNCFAIRHFENKFAVETLICGCMVMWCIVSD | inactive
EASNCFAIRHFENKFAVETLICGCSVSSVHLNLG | 6.7
EASNCFAIRHFENKFAVETLICGCTMRRMLATSW | inactive
EASNCFAIRHFENKFAVETLICGCV | 4.05
EASNCFAIRHFENKFAVETLICGCWNEPLLACTG | inactive
EASNCFAIRHFENKFAVETLICGDADYTFGAAYA | inactive
EASNCFAIRHFENKFAVETLICGDAVWRVVDNCE | inactive
EASNCFAIRHFENKFAVETLICGDDSGWFSARAR | inactive
EASNCFAIRHFENKFAVETLICGDFVMWYAGSVA | 6.48
EASNCFAIRHFENKFAVETLICGDGLSLPLRRVA | inactive
EASNCFAIRHFENKFAVETLICGDHTRGLSVCSV | inactive
EASNCFAIRHFENKFAVETLICGDHVADRLRNVS | 0.721
EASNCFAIRHFENKFAVETLICGDIIEFLGDRCM | 3.91
EASNCFAIRHFENKFAVETLICGDLHHFRHVF | inactive
EASNCFAIRHFENKFAVETLICGDPCTESGLIWQ | inactive
EASNCFAIRHFENKFAVETLICGDRRCYVSMELT | inactive
EASNCFAIRHFENKFAVETLICGDSVEQMFNFGG | 4.12
